Data: the supplement of paper PMC10126150
Values marked as one replicate rest on one cluster of the flow cell; about a third of the high ones do not repeat.

What follows are sequences tested on ATP (assay: switch fluorescence ratio, 500 uM ATP over buffer (Cy3 cluster intensity, sum of 5 cycles each) (fold (ratio)); higher = stronger signal-on switching upon ATP binding; sequences stand for … in TCGTCGGCAGCGTCAGATGTGTATAAGAGACAGTTTTTTTTTTTTTTTTTTTTTTTTT…TC). Conditions: aptamer strand: ATP DNA aptamer (quencher-CACCTGGGGGAGTATTGCGGAGGAAGG + anchor), 100 nM annealed; ATP concentration: 500 uM; one replicate.
How it was run: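 Per cluster, summed Cy3 intensity from the target cycles was divided by that from the buffer cycles to give the fluorescence ratio, then averaged per switch-domain sequence. Clusters outside 100-1000 RFU were excluded. The Cy3-labelled switching-strand clusters, on a modified Illumina MiSeq flow-cell, were annealed to 100 nM quencher-labelled ATP aptamer and imaged in selection buffer, then after 15 min with 500 uM ATP at 22 °C, for five cycles with NaOH stripping and re-annealing between them.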
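Also: ATP exposure 15 min at 22 °C before imaging.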

Sequence | switch fluorescence ratio
AGCAAGGCAT | 1.04
AGCAAGTATA | 1.04
AGCAATCCGC | 1.53
AGCACCTTGG | 1
AGCACGACTT | 1.04
AGCACGGATT | 1.02
AGCACTTAAC | 1.25
AGCAGCCCGT | 1.03
AGCAGCGGTA | 0.993
AGCAGGATTC | 1.19
AGCAGTCCCG | 1.04
AGCAGTGAGT | 0.966
AGCAGTTATT | 0.954
AGCAGTTTC | 1.09
AGCATAAATA | 1.01
AGCATGAATA | 1.01
AGCATGATCT | 0.99
AGCATGTGCT | 1.01
AGCATTAAGG | 0.953
AGCCAAATGA | 1.03
AGCCATATGG | 0.998
AGCCATGGAT | 0.973
AGCCATTCCT | 1.18
AGCCCAAAAG | 1.01
AGCCCAGGCA | 1.03

Sequence | switch fluorescence ratio
AGCCCATGTT | 1
AGCCCGAATA | 1
AGCCCGCGAA | 1.17
AGCCCGTGGA | 1.1
AGCCGAATGA | 0.956
AGCCGCAGAA | 1.57
AGCCGCTCCC | 2.02
AGCCGGAGAA | 0.98
AGCCGGCACG | 1.02
AGCCGGTTAC | 1.2
AGCCTCGCGG | 1
AGCCTGATAC | 2.51
AGCCTTGCAA | 1.65
AGCGAAAACT | 1.52
AGCGAAAGAT | 1.03
AGCGAATTGG | 1.02
AGCGACACGG | 0.991
AGCGACTTGG | 0.961
AGCGAGAGAT | 1.01
AGCGAGGTTT | 0.928
AGCGATGGGC | 1.05
AGCGCAGTAC | 3.91
AGCGCCGATC | 0.976
AGCGCCGGCG | 0.996
AGCGCTTGAA | 0.992

Sequence | switch fluorescence ratio
AGCGGAGGAA | 1.04
AGCGGCACTA | 1.07
AGCGGCATAT | 1.04
AGCGGCCACA | 1.02
AGCGGCGAAC | 1.11
AGCGGCGCGT | 1.04
AGCGGCTACC | 1.07
AGCGGGAGAC | 0.994
AGCGGGCAAT | 1.31
AGCGGGCCCG | 0.975
AGCGGGTGTC | 1
AGCGGTATTT | 0.972
AGCGTATGTA | 1.01
AGCGTGGACG | 0.984
AGCGTTCGGT | 0.943
AGCGTTTTGA | 1.03
AGCTAAGACA | 1.01
AGCTAGCGGA | 0.962
AGCTAGGCGG | 1.1
AGCTATAGCC | 1.02
AGCTATATGT | 1.07
AGCTCATCTT | 0.999
AGCTCCGGGA | 1.01
AGCTCGCTAT | 1.01
AGCTCGTTGT | 0.966

Sequence | switch fluorescence ratio
AGCTCTTCCC | 1.25
AGCTGGCGCG | 1.02
AGCTGGGCGG | 0.915
AGCTTATAAG | 1.05
AGCTTATACT | 2.57
AGCTTATATC | 1.26
AGCTTCA | 1.12
AGCTTCCGTA | 1.39
AGCTTGACAA | 1.05
AGCTTGTCA | 0.984
AGCTTGTCGT | 1
AGCTTGTGAT | 0.99
AGCTTTAGAT | 0.987
AGCTTTGAAA | 0.957
AGCTTTTGAC | 1.06
AGGAAAGGAA | 0.998
AGGAAAGGGG | 0.993
AGGAAAGTAT | 0.994
AGGAAAGTGG | 0.982
AGGAACTCTA | 1
AGGAACTT | 0.982
AGGAAGATG | 0.995
AGGAAGCAAC | 1.52
AGGAAGCGAG | 0.973
AGGAAGCGTT | 0.971
